# Measurements: the supplement of paper PMC10037445
# The full ranking holds about 2,900 compounds; the median of “NF-kB SEAP reporter activity, fold change vs agonist alone” is about 0.99, and the highest 2% start at about 2.6. This is one part of the list.
# Assays:
# RAW-Dual [1] = test: NF-kB SEAP reporter activity, fold change vs agonist alone; higher = enhanced NF-kB activity
# Outline: (§1)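 After 50 nL of library stock was delivered by pin tool to RAW-Dual macrophages (50,000 cells/well, DMEM, 384-well plates), a PRR agonist was added 1 h later and the plates were kept at 37 °C, 5% CO2. Twenty hours later, IRF was read from supernatant by QuantiLuc luminescence and NF-κB by QuantiBlue absorbance at 620 nm. Reporter activity is stated as fold change over agonist-alone wells. Wells with IncuCyte confluency under 70% of agonist controls in both mask sets were counted as cytotoxic.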
# RAW-Dual [2] = test: NF-kB SEAP reporter activity, fold change vs agonist alone; cytotoxicity flag (confluency mask): not cytotoxic; higher = enhanced NF-kB activity
# Outline: as §1
# RAW-Dual [3] = test: NF-kB SEAP reporter activity, fold change vs agonist alone; cytotoxicity flag (confluency mask): cytotoxic (confluency <70% of control); higher = enhanced NF-kB activity
# Outline: as §1
# [4] = library stock concentration (final ~1000-fold dilution): 10 mM, cytotoxicity flag (confluency mask): not cytotoxic, agonist: MPLA (TLR4) […]
# [5] = agonist: ODN 1826 (TLR9) 0.5 ug/mL
# [6] = agonist: Pam2CSK4 (TLR2/6) 0.1 ug/mL
# [7] = agonist: Pam3CSK4 (TLR2/1) 0.1 ug/mL
# [8] = library stock concentration (final ~1000-fold dilution): 10 mM, cytotoxicity flag (confluency mask): not cytotoxic, agonist: Imiquimod (TLR7) […]
smiles,measurement,setting,value
Nc1ccncc1,NF-kB SEAP reporter activity,RAW-Dual [1]; [4],1.05
Nc1ccncc1 (library stock concentration (final ~1000-fold dilution): 10 mM),NF-kB SEAP reporter activity,RAW-Dual [2]; agonist: LPS (TLR4) 0.1 ug/mL,1.08
same,NF-kB SEAP reporter activity,RAW-Dual [2]; [5],0.999
same,NF-kB SEAP reporter activity,RAW-Dual [2]; [6],0.978
same,NF-kB SEAP reporter activity,RAW-Dual [2]; [7],1.08
CC12CCC3C(CCC4CC(O)CCC43C)C1CCC2=O (stereo unspecified) (library stock concentration (final ~1000-fold dilution): 10 mM),NF-kB SEAP reporter activity,RAW-Dual [2]; agonist: LPS (TLR4) 0.1 ug/mL,0.978
same,NF-kB SEAP reporter activity,RAW-Dual [2]; [5],0.89
same,NF-kB SEAP reporter activity,RAW-Dual [2]; [6],0.966
same,NF-kB SEAP reporter activity,RAW-Dual [2]; [7],1.25
CC12CCC3C(CCC4CC(O)CCC43C)C1CCC2=O (stereo unspecified),NF-kB SEAP reporter activity,RAW-Dual [1]; [8],1.11
same,NF-kB SEAP reporter activity,RAW-Dual [1]; [4],1.22
CCN1CC2(COC)CCC(OC)C34C5CC6(O)C(OC)CC(OC(C)=O)(C5C6C(=O)c5ccc(OC)cc5)C(C(OC)C23)C14 (stereo unspecified),NF-kB SEAP reporter activity,RAW-Dual [1]; [8],0.897
same,NF-kB SEAP reporter activity,RAW-Dual [1]; [4],1.07
CCN1CC2(COC)CCC(OC)C34C5CC6(O)C(OC)CC(OC(C)=O)(C5C6C(=O)c5ccc(OC)cc5)C(C(OC)C23)C14 (stereo unspecified) (library stock concentration (final ~1000-fold dilution): 10 mM),NF-kB SEAP reporter activity,RAW-Dual [2]; agonist: LPS (TLR4) 0.1 ug/mL,1.22
same,NF-kB SEAP reporter activity,RAW-Dual [2]; [5],0.998
same,NF-kB SEAP reporter activity,RAW-Dual [2]; [6],1.36
same,NF-kB SEAP reporter activity,RAW-Dual [2]; [7],1.03
Fc1cc(F)c2c(c1)C1C=CCC1C(c1cccnc1)N2 (stereo unspecified),NF-kB SEAP reporter activity,RAW-Dual [1]; [8],1.14
same,NF-kB SEAP reporter activity,RAW-Dual [1]; [4],0.458
Fc1cc(F)c2c(c1)C1C=CCC1C(c1cccnc1)N2 (stereo unspecified) (library stock concentration (final ~1000-fold dilution): 10 mM),NF-kB SEAP reporter activity,RAW-Dual [2]; agonist: LPS (TLR4) 0.1 ug/mL,0.27
same,NF-kB SEAP reporter activity,RAW-Dual [2]; [5],0.315
same,NF-kB SEAP reporter activity,RAW-Dual [2]; [6],0.139
same,NF-kB SEAP reporter activity,RAW-Dual [2]; [7],0.262
CN(CCC(N)CC(=O)NC1C=CC(n2ccc(N)nc2=O)OC1C(=O)O)C(=N)N.Cl (stereo unspecified),NF-kB SEAP reporter activity,"RAW-Dual [1]; library stock concentration (final ~1000-fold dilution): 10 mM water, cytotoxicity flag (confluency mask): not cytotoxic, agonist: Imiquimod (TLR7) […]",1.28
same,NF-kB SEAP reporter activity,"RAW-Dual [1]; library stock concentration (final ~1000-fold dilution): 10 mM water, cytotoxicity flag (confluency mask): not cytotoxic, agonist: MPLA (TLR4) […]",1.26
CN(CCC(N)CC(=O)NC1C=CC(n2ccc(N)nc2=O)OC1C(=O)O)C(=N)N.Cl (stereo unspecified) (library stock concentration (final ~1000-fold dilution): 10 mM water),NF-kB SEAP reporter activity,RAW-Dual [2]; agonist: LPS (TLR4) 0.1 ug/mL,1
same,NF-kB SEAP reporter activity,RAW-Dual [2]; [5],1.42
same,NF-kB SEAP reporter activity,RAW-Dual [2]; [6],0.372
same,NF-kB SEAP reporter activity,RAW-Dual [2]; [7],0.781
CC12CCC3C(CC=C4CC(O)CCC43C)C1CCC2=O (stereo unspecified),NF-kB SEAP reporter activity,RAW-Dual [1]; [8],1.13
same,NF-kB SEAP reporter activity,RAW-Dual [1]; [4],1.18
CC12CCC3C(CC=C4CC(O)CCC43C)C1CCC2=O (stereo unspecified) (library stock concentration (final ~1000-fold dilution): 10 mM),NF-kB SEAP reporter activity,RAW-Dual [2]; agonist: LPS (TLR4) 0.1 ug/mL,0.994
same,NF-kB SEAP reporter activity,RAW-Dual [2]; [5],1.05
same,NF-kB SEAP reporter activity,RAW-Dual [2]; [6],1.22
same,NF-kB SEAP reporter activity,RAW-Dual [2]; [7],1.44
COC(=O)CC(O)(CCC(C)(C)O)C(=O)OC1C(OC)=CC23CCCN2CCc2cc4c(cc2C13)OCO4 (stereo unspecified),NF-kB SEAP reporter activity,"RAW-Dual [1]; library stock concentration (final ~1000-fold dilution): 10 mM, cytotoxicity flag (confluency mask): cytotoxic (confluency <70% of control), agonist: Imiquimod (TLR7) […]",0.135
same,NF-kB SEAP reporter activity,"RAW-Dual [1]; library stock concentration (final ~1000-fold dilution): 10 mM, cytotoxicity flag (confluency mask): cytotoxic (confluency <70% of control), agonist: MPLA (TLR4) […]",0.255
COC(=O)CC(O)(CCC(C)(C)O)C(=O)OC1C(OC)=CC23CCCN2CCc2cc4c(cc2C13)OCO4 (stereo unspecified) (library stock concentration (final ~1000-fold dilution): 10 mM),NF-kB SEAP reporter activity,RAW-Dual [3]; agonist: LPS (TLR4) 0.1 ug/mL,0.359
same,NF-kB SEAP reporter activity,RAW-Dual [3]; [5],0.169
same,NF-kB SEAP reporter activity,RAW-Dual [3]; [6],0.0733
same,NF-kB SEAP reporter activity,RAW-Dual [3]; [7],0.136
